According to the supplement of paper PMC4604168 (melanoma cell lines):
The list shows a part of the results. Repeats are few or missing, and single values can be far off.

Each compound was assayed on LB2518-MEL (assay: cell count relative to DMSO control; melanoma cells; higher = more viable cells). Settings: library dose: low library concentration; 72 h.
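Note: cell number obtained by counting DAPI-stained nuclei in high-throughput microscope images with image analysis software, screen run in 1,536-well plates.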

Row | Structure (SMILES) | cell count [%]
1 | CC[C@]1(O)C[C@H]2CN(CCc3c([nH]c4ccccc34)[C@@](C(=O)OC)(c3cc4c(cc3OC)N(C=O)[C@H]3[C@@](O)(C(=O)OC)[C@H](OC(C)=O)[C@]5(CC)C=CCN6CC[C@]43[C@@H]65)C2)C1 [vincristine] + CO[C@H]1C[C@@H]2CC[C@@H](C)[C@@](O)(O2)C(=O)C(=O)N2CCCC[C@H]2C(=O)O[C@H]([C@H](C)C[C@@H]2CC[C@@H](OCCO)[C@H](OC)C2)CC(=O)[C@H](C)/C=C(\C)[C@@H](O)[C@@H](OC)C(=O)[C@H](C)C[C@H](C)/C=C/C=C/C=C/1C [everolimus] (first compound 0.0001 µM, partner dose 0.02 µM) | 79.4
2 | N#CC[C@H](C1CCCC1)n1cc(-c2ncnc3[nH]ccc23)cn1 [ruxolitinib] + CC[C@]1(O)C[C@H]2CN(CCc3c([nH]c4ccccc34)[C@@](C(=O)OC)(c3cc4c(cc3OC)N(C=O)[C@H]3[C@@](O)(C(=O)OC)[C@H](OC(C)=O)[C@]5(CC)C=CCN6CC[C@]43[C@@H]65)C2)C1 [vincristine] (first compound 1 µM, partner dose 0.0001 µM) | 132
3 | N#CC[C@H](C1CCCC1)n1cc(-c2ncnc3[nH]ccc23)cn1 [ruxolitinib] + O=C(Nc1ccccc1)c1cc([N+](=O)[O-])ccc1Cl [GW9662] (first compound 1 µM, partner dose 2 µM) | 116
4 | N#CC[C@H](C1CCCC1)n1cc(-c2ncnc3[nH]ccc23)cn1 [ruxolitinib] + CC(=O)O[C@@]12CO[C@@H]1C[C@H](O)[C@@]1(C)C(=O)[C@H](O)C3=C(C)[C@@H](OC(=O)[C@H](O)[C@@H](NC(=O)OC(C)(C)C)c4ccccc4)C[C@@](O)([C@@H](OC(=O)c4ccccc4)[C@H]21)C3(C)C [Docetaxel] (first compound 1 µM, partner dose 0.0001 µM) | 73.3
